Test results taken from the supplement of paper PMC3334620.
In all, about 33,000 sequences were measured (“E-score (-0.5 to 0.5)”: median about -0.013, highest 2% from about 0.3 on). The list shows a part of the results.

molecular target: T1, Msn1 (UniProt P22148); test: PBM E-score (8-mer binding enrichment) (E-score (-0.5 to 0.5)); higher = stronger / more preferred TF binding; most listed sequences are background and not binding sites; conditions: protein concentration: 200 nM; construct: GST-full length
T1 sequence: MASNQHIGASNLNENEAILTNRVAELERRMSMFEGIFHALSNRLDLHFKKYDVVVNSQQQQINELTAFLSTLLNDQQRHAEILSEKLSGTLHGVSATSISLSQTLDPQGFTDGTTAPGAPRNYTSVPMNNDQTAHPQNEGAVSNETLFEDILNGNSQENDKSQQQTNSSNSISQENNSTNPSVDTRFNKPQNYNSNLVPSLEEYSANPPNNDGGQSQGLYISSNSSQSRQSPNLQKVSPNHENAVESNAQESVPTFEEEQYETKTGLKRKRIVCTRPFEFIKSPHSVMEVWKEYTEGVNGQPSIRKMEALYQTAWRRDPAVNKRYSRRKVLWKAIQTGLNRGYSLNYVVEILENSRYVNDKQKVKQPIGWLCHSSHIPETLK
Procedure, shortened: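 Full-length yeast transcription factors or their DNA-binding domains, GST-tagged and expressed with PURExpress, were applied at about 100-200 nM to universal all-10-mer Agilent arrays. These arrays had been made double-stranded by primer extension on fresh or once-stripped slides. Detection used fluorescent anti-GST, normalisation used masliner, and E-scores for ungapped eight-base words pooled with reverse complements came from the Universal PBM Analysis Suite.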

Row | Sequence | PBM E-score
1 | GTGACTCA | 0.0122
2 | GCAGTCAC | -0.211
3 | ACCACCTG | -0.104
4 | ACACGACG | 0.112
5 | ATTTGTCA | 0.46
6 | ATGTAAGA | 0.159
7 | ACTTCCAA | -0.12
8 | ATGCACAT | 0.0144
9 | CCGGGGAG | -0.119
10 | ACCAGGGA | -0.144
11 | ACTAGAAT | 0.13
12 | AACTATGT | 0.0846
13 | AATCAAGT | 0.115
14 | AGTACAGG | 0.202
15 | GCGAAAGC | -0.0509
16 | ATAATGTC | 0.427
17 | AGCATTTG | 0.121
18 | AAAGAAGG | -0.0898
19 | CCGTAACA | -0.0464
20 | CGGCTGGC | -0.23
21 | AAACTGTC | 0.151
22 | CTTGTTAA | -0.0116
23 | AACTGCCT | 0.0547
24 | CGTACGAA | 0.0187
25 | ATCCCCTC | -0.234

Row | Sequence | PBM E-score
26 | GAAGAAGA | -0.129
27 | CTGCTGTA | -0.182
28 | GAGATGTA | 0.0478
29 | CCTGCTTA | -0.103
30 | AAACTGCT | -0.222
31 | CGGGGTGC | -0.0594
32 | CTACGGTA | -0.133
33 | AGCGAAGA | -0.0309
34 | AAGCTCCG | 0.0967
35 | TCGTCAAA | 0.0563
36 | CCCGTTAC | -0.0443
37 | AAACACAG | 0.211
38 | GATTTTCC | -0.0436
39 | AAACTGAC | 0.0261
40 | ACTAATAG | 0.179
41 | GTACTGTA | -0.0264
42 | ATGGCGAC | 0.0843
43 | TCGGTCCA | -0.0358
44 | ACGAACTA | 0.11
45 | CTCTTCAA | -0.0922
46 | TGATGCCA | -0.018
47 | CGGTTGTA | -0.139
48 | ATTCAAAA | 0.109
49 | CGGCGAAC | 0.0275
50 | ATCGAGTA | -0.0502

Row | Sequence | PBM E-score
51 | AGTTATGA | 0.0272
52 | CTTTGTGC | 0.058
53 | TCCACTCA | -0.212
54 | CCGCATTA | 0.00372
55 | ATACCCTC | 0.0182
56 | AAAATAAA | 0.0137
57 | GTGTGCGA | -0.2
58 | CGGTCGAC | 0.0687
59 | GTTGAGGA | -0.00729
60 | AGCCGGGA | 0.131
61 | ATGTCAGC | 0.194
62 | ACGGTTCT | -0.0415
63 | ATGTTCTC | 0.147
64 | CTACTTTC | 0.0454
65 | AACGGACG | 0.0165
66 | CGCGGCGA | 0.176
67 | AGAGTGAT | 0.0647
68 | GTTAATTA | 0.115
69 | CTTTAACA | 0.0851
70 | CTATTAGA | -0.141
71 | ATGGTCTA | -0.143
72 | CCAATAGG | -0.0111
73 | GAAACGTC | 0.0634
74 | TCTGAACA | 0.0541
75 | AAGTTACC | 0.123

Row | Sequence | PBM E-score
76 | CTACGAAC | 0.0953
77 | CCGGCCCA | -0.312
78 | CCCGATAC | 0.133
79 | GTGCCAAA | -0.0718
80 | AAATATCA | 0.135
81 | ATACAGAT | 0.2
82 | CTCGCATA | -0.0411
83 | ACTAGTCA | -0.064
84 | AAGGGTTG | -0.06
85 | CTACAAGC | -0.064
86 | ACAAAATG | 0.312
87 | GGTAGCGA | -0.0657
88 | CTCGTTCC | -0.0798
89 | TCCTATCA | -0.12
90 | ATTCTATA | 0.159
91 | ATACGCTG | -0.0534
92 | CTAAGGTC | -0.0691
93 | GGACGAGA | 0.172
94 | CATGGGCG | 0.0816
95 | AAGAACTC | -0.0785
96 | GCCTGAGA | -0.014
97 | ATGTCATG | 0.411
98 | GCAAGCAC | -0.21
99 | TATACACA | 0.0182
100 | ATTCGTAA | 0.0882

Row | Sequence | PBM E-score
101 | ATCATGTA | 0.0784
102 | GATACCGC | 0.0847
103 | CGAGACCA | -0.00458
104 | CGTCACAA | 0.137
105 | CAGTTAGA | 0.0714
106 | CCCCTCTC | -0.253
107 | ATGATCGC | -0.0888
108 | AGCGGGAA | 0.0246
109 | ATGACACA | 0.287
110 | CTTCCTCA | -0.228
111 | AATTGATA | 0.217
112 | CAGTACCA | -0.0517
113 | AGATCCTG | -0.014
114 | CAGTGGAA | -0.0963
115 | GTTACGCA | -0.00599
116 | CCGCATCA | -0.0818
117 | AATTGACG | -0.024
118 | CGGATACA | 0.0726
119 | CCTTAACC | -0.151
120 | CCAGAGCA | -0.186
121 | GATTAGGC | 0.134
122 | ACGATTAC | 0.0928
123 | CATGGCCA | -0.0573
124 | TCGAGAGA | -0.091
125 | GCACGACA | -0.045

Row | Sequence | PBM E-score
126 | GTGATTAA | -0.0255
127 | GATTCTAC | -0.049
128 | ACGGAATC | 0.109
129 | AAAAGTCG | 0.248
130 | CGGCCGCA | -0.222
131 | AAACCAGT | -0.0705
132 | CAATCTCA | -0.0159
133 | GCGGTTCC | -0.0262
134 | AAACGCGT | 0.103
135 | AACTCCAT | 0.0337
136 | ATACTCCA | 0.046
137 | CCCGGTTA | -0.154
138 | ACCCTGTG | -0.118
139 | GCAGCCAC | -0.161
140 | CGAACTCA | -0.058
141 | TAGGAGCA | -0.0495
142 | AATATTTC | 0.103
143 | AGTTTGCG | 0.0266
144 | CGATCGTA | 0.187
145 | AAGAATGG | -0.0359
146 | CTGCCCTA | -0.0394
147 | GATGTCGA | 0.0163
148 | CTAAGCCC | -0.154
149 | CTACCTAG | -0.18
150 | AAGGTAAT | 0.0993

Row | Sequence | PBM E-score
151 | CGAGGGAC | -0.00744
152 | AACTGGCG | -0.122
153 | AATGCCGC | 0.0604
154 | CGGCACCG | -0.0171
155 | GAACAACC | 0.11
156 | CACGACTC | 0.0981
157 | CAAACTTG | 0.0455
158 | CAATGCTC | -0.145
159 | ATTGTAAG | -0.187
160 | AAGTCCCC | 0.0292
161 | CATAGTAG | 0.0607
162 | CTATGAGC | -0.19
163 | TAGCTAGA | 0.0429
164 | AAGTACGG | 0.0556
165 | AACCCGGG | -0.0877
166 | GAGGGTGA | -0.104
167 | GACGTTGC | -0.0501
168 | ATATCATA | 0.216
169 | ATATGCGC | -0.129
170 | ATGAGGCA | -0.288
171 | CTTATAGC | 0.142
172 | CATCCAAC | -0.00221
